Experimental data reported in PubChem BioAssay AID463173 (ICCB-Longwood Screening Facility, Harvard Medical School, 2010).
In all, about 52,000 compounds went through this assay and about 1,700 (3.3%) were called active. Rule as the data show it: active = survival mostly below about 52% (no sharp cut-off); inactive = mostly above about 56%. This is one part of the list.

System: Wild type
Experiment: growth inhibition of S. aureus wild type versus tarO mutant, primary screen, teichoic acid synthesis inhibitors, RN4220, OD600 (AID 463173)
Conditions: S. aureus RN4220 wild type/DeltatarO growth, OD600, 18 h, hits give low values, screened at 18.75 µg/mL (by protocol)

Compound | survival
COc1cccc(Cn2c(=O)n(Cc3ccccc3)c(=O)c3c2c2cc(OC)ccc2n3C)c1 | inactive: 57%
Cc1cc(C)cc(-n2c(SCC(=O)Nc3ccc4c(c3)OCO4)nc3c([nH]c4ccccc43)c2=O)c1 | inactive: 55%
COc1ccc(CNC(=O)C(=O)NCC(c2cccnc2)N2CCN(c3ccccc3)CC2)cc1 (stereo not drawn) | inactive: 83%
Cc1cccc(N(C)S(=O)(=O)c2ccc3c(c2)NC(=O)CC(=O)N3)c1 | inactive: 71%
O=C(COC(=O)c1ccccc1)Nc1ccc2c(c1)OCO2 | inactive: 115%
Cc1cc2[nH]c(=O)c(=O)[nH]c2cc1S(=O)(=O)N1CCN(c2ccccc2F)CC1 | inactive: 77%
COc1ccc(C2C3=C(CCCC3=O)NC3=C2C(=O)c2ccccc23)c(OC)c1OC (stereo not drawn) | inactive: 113%
COc1ccc2sc(N(Cc3cccnc3)C(=O)CCc3ccccc3)nc2c1 | inactive: 129%
COc1cc(C2CC(=O)c3c([nH]c(C(=O)OC4CCCC4)c3C)C2)cc(OC)c1OC (stereo not drawn) | inactive: 81%
COCCn1nnnc1CN1CCC(Cc2ccccc2)CC1 | inactive: 101%
CCN(C(=O)Cn1nc(Cc2ccncc2)c2ccccc2c1=O)c1ccc(OC)cc1 | inactive: 74%
COC(=O)c1c(NC(=O)c2ccc(C(C)(C)C)cc2)sc2c1CCC(C)C2 (stereo not drawn) | inactive: 71%
CCOc1ccc(CCNC(=O)c2ccc(CSCc3ccccc3C)o2)cc1OCC | inactive: 118%
O=C(CSc1nc(=O)n(Cc2ccncc2)c2c1CCC2)Nc1cccc(F)c1 | inactive: 125%
Clc1ccc(-c2cn3cc(Cc4ccccc4)sc3n2)cc1 | inactive: 81%
CCc1ccc(NC(=O)CNC(=O)Cn2c(C)cc3ccccc3c2=O)cc1 | inactive: 119%
CCN(C(=O)C(NS(=O)(=O)c1ccc(Br)s1)c1ccccc1)c1ccc(C)c(C)c1 (stereo not drawn) | inactive: 68%
CC(=O)ONC(=Nc1ccccc1C)c1nonc1N | inactive: 92%
Cc1cc(=O)n2nc(N)sc2n1 | inactive: 106%
CC1(C)CC(=O)c2cc(-c3nc(-c4ccc(F)cc4)cs3)c(=O)[nH]c2C1 | inactive: 91%
CC(C)c1ccc(-c2noc(C3CCCN(C(=O)Cc4cccs4)C3)n2)cc1 (stereo not drawn) | inactive: 120%
O=C(Cc1ccc(Cl)cc1)Nc1ccc2oc(-c3ccc(F)cc3)nc2c1 | inactive: 87%

Compound | survival
Cc1cc(C)cc(OCC(=O)N2CCC(c3nc4ccccc4o3)CC2)c1 | inactive: 75%
COC(=O)c1ccccc1NC(=O)C(Cc1ccccc1)N1Cc2ccccc2C1=O (stereo not drawn) | inactive: 53%
COc1ccc(C)cc1NC(=O)Cn1cc(S(=O)(=O)N2CCC(C)CC2)c2ccccc2c1=O | inactive: 83%
CCC(=O)N1c2ccccc2CC1C(=O)NCCN1CCN(c2cc(Cl)ccc2C)CC1 (stereo not drawn) | inactive: 64%
CCOc1ccc(NC(=O)c2c(NCc3cc(OC)c(OC)cc3OC)sc3c2CCCC3)cc1 | inactive: 83%
CC(=O)c1cccc(NC(=O)c2ccc3c(c2)N(Cc2ccc(C)cc2)CCS3)c1 | inactive: 81%
COc1ccc(CCNC(=O)Cn2c(=O)nc(-c3ccccc3)c3cc(Cl)ccc32)cc1OC | inactive: 70%
COc1ccc(NC(=O)Cn2c(-c3ccc(F)cc3)cc(C(C)=O)c2C)c(OC)c1 | inactive: 128%
O=S(=O)(c1ccccc1)n1nc(-c2ccc(Cl)cc2)nc1NCc1ccccc1 | inactive: 56%
CC(=O)Nc1ccc(S(=O)(=O)NCC2CCC(C(=O)NCCc3ccc(C)cc3)CC2)cc1 (stereo not drawn) | inactive: 117%
COCCCNc1nc2c(c(=O)[nH]c(=O)n2C)n1CC(O)COc1ccc(Cl)cc1 (stereo not drawn) | inactive: 75%
COc1cccc(CC(=O)Nc2c(C(=O)N3CCN(c4ccccc4F)CC3)oc3ccccc23)c1 | inactive: 97%
CCCC1=Nc2cc(C(=O)NC3CCCCC3)ccc2Sc2ccc(C)cc21 | inactive: 110%
Cc1cc(C)c2c(=O)c3c(oc2c1)C(=O)N(CCCOC(C)C)C3c1ccccc1F (stereo not drawn) | inactive: 84%
N#C/C(=C\c1ccc(F)cc1)c1nc(-c2ccc(-c3ccccc3)cc2)cs1 | inactive: 74%
CC1=C(C(=O)Nc2ccccc2C)C(c2ccccn2)n2ncnc2N1 (stereo not drawn) | inactive: 75%
CCC(=O)C1=C(c2ccc(C)cc2)N(C(=O)CC)n2c(nnc2C2CCCCC2)S1 | inactive: 76%
Cc1cccc(C)c1NC(=O)CS(=O)(=O)c1nc(-c2ccc(Cl)cc2)cn1-c1ccccc1 | inactive: 84%
CC(=O)N1CCc2cc(S(=O)(=O)NC(CC(C)C)C(=O)Nc3cc(C)cc(C)c3)ccc21 (stereo not drawn) | inactive: 87%
CCOC(=O)c1nc(NCc2ccc(Cl)cc2)c2c(C)noc2n1 | inactive: 76%
CCOc1ccc(Cn2c(=O)sc3ccccc32)cc1 | inactive: 72%
Cc1cccn2c(=O)c3cc(C#N)c(=O)n(-c4nnc(SCc5ccc(Cl)cc5)s4)c3nc12 | inactive: 83%

Compound | survival
Cc1c(Cl)cccc1NC(=O)CCOc1ccccc1 | inactive: 145%
Cc1ccc(NC(=O)CN2C(=O)COc3ccc(S(=O)(=O)NC4CCCC4)cc32)cc1N(C)C | inactive: 77%
Cc1ccc(C)c(Cn2c(=O)c3c(nc4n3CCN4c3ccccc3)n(C)c2=O)c1 | inactive: 85%
CC1=C(C(=O)Nc2ccc(Cl)cc2)C(c2ccccc2)n2ncc(C(=O)Nc3ccccc3)c2N1 (stereo not drawn) | inactive: 81%
Cc1cc(C)c2c(c1)c(C)cc1nnc(SCc3ccccc3C#N)n12 | inactive: 67%
COc1ccc(NC(=O)CSc2nc(-c3cccc(C)c3)[nH]c2-c2ccccc2)cc1OC | inactive: 67%
Cc1ccc(C)c(-c2ccc(=O)n(Cc3c(F)cccc3Cl)n2)c1 | inactive: 108%
CCSc1ncc(Cl)c(C(=O)Nc2sc3c(c2C(=O)NCCCOC)CCCC3)n1 | inactive: 120%
CC(=O)N1CCc2c(sc3c2c(=O)n(CCc2ccccc2)c(=O)n3Cc2ccccc2C)C1 | inactive: 74%
CC(=O)Nc1n[nH]c(-c2ccc(C)cc2)c1C | inactive: 108%
CC(C)Sc1ncc(Cl)c(C(=O)Nc2ccc(S(=O)(=O)N3CCCCC3)cc2)n1 | inactive: 78%
CCN(CC)S(=O)(=O)c1ccc2c(c1)c(=O)c(C(=O)N1CCN(c3cc(Cl)ccc3C)CC1)cn2C | inactive: 83%
CN(C)C(=O)c1ccc(N(C)S(=O)(=O)c2ccccc2)cc1 | inactive: 113%
CC(C)c1noc(-c2ccccc2OCC(=O)Nc2cccc([N+](=O)[O-])c2)n1 | inactive: 80%
CCOc1ccc(Nc2c(S(=O)(=O)c3ccccc3)cnc3ccc(F)cc23)cc1 | inactive: 61%
O=C(Oc1ccccc1F)c1nc(SCc2ccc(F)cc2)ncc1Cl | inactive: 88%
COc1cc(C2CC(=O)Oc3c2c(=O)[nH]c2ccccc32)cc(OC)c1OC (stereo not drawn) | inactive: 72%
Cc1ccc(-c2cc3nc(-c4ccccc4)cc(C(F)(F)F)n3n2)cc1 | inactive: 80%
CCOc1ccc(-c2c(C)nn3c(C)c(C(=O)Nc4cc(C)cc(C)c4)cnc23)cc1OCC | inactive: 133%
CC(=O)N1CCc2cc(Br)cc(S(=O)(=O)CCC(=O)N3CCN(c4ccccc4Cl)CC3)c21 | inactive: 84%
COc1ccc(-c2nc3scc(CCNS(=O)(=O)c4ccc5c(c4)OCCO5)n3n2)cc1 | inactive: 56%
Cc1ccc(CN(C(=O)COc2cc(C)c(Cl)c(C)c2)c2ccccn2)o1 | inactive: 78%

Compound | survival
Cc1[nH]c2ccccc2c1Cc1nnc(SCC(N)=O)n1Cc1ccco1 | inactive: 107%
Cc1ccc(S(=O)(=O)c2c(O)cc(C)c(NS(=O)(=O)c3ccc(Cl)cc3)c2C)cc1 | inactive: 105%
COc1ccccc1N1CCN(S(=O)(=O)c2c(C)nc3sccn3c2=O)CC1 | inactive: 89%
Cc1cc(C)c2sc(N3CCN(C(=O)c4ccc(N(C)C)cc4)CC3)nc2c1 | inactive: 136%
CC(C)c1nn2c(=O)cc(COC(=O)c3ccco3)nc2s1 | inactive: 68%
COc1ccccc1C(=O)Nc1ccc(C(=O)OCc2cc(=O)n3nc(C4CC4)sc3n2)cc1 | inactive: 71%
COc1ccc(N2C(=O)CSC23C(=O)N(CC(=O)NCCc2ccccc2)c2ccccc23)cc1 (stereo not drawn) | inactive: 71%
O=C(CSc1nc(=O)[nH]c2c1CCCC2)NCc1ccccc1 | inactive: 69%
Cc1c(C)c2cc3c(c(C)c2oc1=O)OCN(CCc1ccc(F)cc1)C3 | inactive: 83%
Cc1nn2c(C)c(C(=O)NC(C)(C)C)cnc2c1-c1ccc(F)cc1 | inactive: 120%
Cc1ccc(N2CC(NC(=O)c3cc4ccccc4o3)CC2=O)cc1 (stereo not drawn) | inactive: 124%
CCc1ccc(Cn2c(CNS(=O)(=O)c3ccc(C)c(C)c3)nc3cccnc32)cc1 | inactive: 71%
COc1ccc(NC(=O)Cn2c(=O)n(Cc3ccccc3)c(=O)c3sc4ccccc4c32)cc1 | inactive: 79%
CCCCNC(=O)c1cc2n(n1)CCCN(Cc1ccc(C)cc1)C2=O | active: 0%
CCOc1ccc(C(=O)Nc2ccc3oc(-c4ccc5ccccc5c4)nc3c2)cc1 | inactive: 81%
COc1ccc(CNC(=O)CCc2c(C)c3cc4c(C)coc4c(C)c3oc2=O)cc1OC | inactive: 82%
CN1CCN(CC(=O)N(c2ccccc2)c2ccc(O)cc2)CC1 | inactive: 90%
O=C1NCCN1C(=O)NC1CCCCC1 | inactive: 108%
CCCCN(C)CCNC(=O)c1cc2c(=O)n(C)c3ccccc3c2n1C | inactive: 86%
Cc1ccc(S(=O)(=O)CC(=O)N2CCN(c3nc4c(F)cccc4s3)CC2)cc1 | active: -6%
CN1C(=O)c2ccccc2Sc2ccc(NC(=O)c3ccc(C(F)(F)F)cc3)cc21 | inactive: 80%
N#Cc1ccccc1NS(=O)(=O)c1ccc(N2CCCCS2(=O)=O)cc1 | inactive: 80%
